Data from the supplement of paper PMC3334620.
The full ranking holds about 33,000 sequences; the median of “E-score (-0.5 to 0.5)” is about -0.017, and the highest 2% start at about 0.3. The list shows a part of the results.

Each sequence was assayed against T1, Sut1 (UniProt P53032) (assay: PBM E-score (8-mer binding enrichment) (E-score (-0.5 to 0.5)); higher = stronger / more preferred TF binding; most listed sequences are background and not binding sites). Details: protein concentration: 200 nM; construct: GST-full length.
T1 sequence: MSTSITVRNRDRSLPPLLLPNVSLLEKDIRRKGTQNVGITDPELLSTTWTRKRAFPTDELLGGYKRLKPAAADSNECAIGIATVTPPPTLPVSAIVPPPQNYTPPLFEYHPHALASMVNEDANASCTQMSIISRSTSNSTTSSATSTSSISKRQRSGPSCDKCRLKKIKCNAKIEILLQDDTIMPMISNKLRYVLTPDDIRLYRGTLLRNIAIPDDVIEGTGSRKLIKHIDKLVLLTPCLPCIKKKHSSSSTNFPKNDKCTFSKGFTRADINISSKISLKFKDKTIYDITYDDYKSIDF
How it was run: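 Detection of bound protein used fluorescent anti-GST, with scans normalised by masliner. The proteins were GST-tagged yeast transcription factors applied at about 100-200 nM to universal all-10-mer Agilent arrays made double-stranded by primer extension. Each ungapped eight-base word, pooled with its reverse complement, was scored with an E-score from the Universal PBM Analysis Suite.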

First: CACGGACA
Second: TACTGCGA
The “PBM E-score” value of the first is higher: 0.153 for the first, -0.113 for the second.

Compared with AGGCCCCT, CATTTTAC is higher in “PBM E-score” value: -0.286 for the first, 0.286 for the second.

First: ATTCATTC
Second: GCCTGCTA
The “PBM E-score” value of the first is higher: 0.216 for the first, -0.0423 for the second.

First: CCACCCAC
Second: AGTGAGGC
The “PBM E-score” value of the first is lower: -0.191 for the first, -0.0565 for the second.

First: AGCACGAA
Second: GTAAGTAC
The “PBM E-score” value of the first is lower: 0.0707 for the first, 0.0786 for the second.

Compared with CTTATGCA, AGATTACC is higher in “PBM E-score” value: 0.0449 for the first, 0.18 for the second.

First: ACCAAATC
Second: AGGTTCTC
The “PBM E-score” value of the first is lower: 0.019 for the first, 0.164 for the second.

First: CTTCGGCA
Second: CCTCCCAC
The “PBM E-score” value of the first is higher: 0.132 for the first, -0.0727 for the second.

Going from TAATGGTA to ATCTGGCC, the “PBM E-score” value falls from 0.182 to -0.162.

Compared with GTCTTGTA, ATACCGCC is lower in “PBM E-score” value: 0.0183 for the first, -0.0853 for the second.

Compared with TAATTGCA, GTCTAGAC is lower in “PBM E-score” value: 0.148 for the first, -0.28 for the second.

Going from GCAGCTTA to CCCCAAGA, the “PBM E-score” value falls from -0.137 to -0.154.

Going from ACGAGTTA to ATTGTATG, the “PBM E-score” value rises from 0.0555 to 0.175.

First: AATGCCTC
Second: CAGCCGTC
The “PBM E-score” value of the first is lower: -0.143 for the first, -0.13 for the second.

Compared with CGCTATTC, TAGTAACA is lower in “PBM E-score” value: 0.117 for the first, 0.0104 for the second.

Compared with AAATTGTA, ACTTCTGA is lower in “PBM E-score” value: 0.194 for the first, -0.136 for the second.

Going from CAAACAAC to ATAAACCC, the “PBM E-score” value falls from 0.242 to 0.0489.

Going from GTAAGCTA to ACTACCTC, the “PBM E-score” value falls from 0.226 to -0.0526.

Compared with TAAGCCGA, AAGTGAGC is lower in “PBM E-score” value: 0.117 for the first, -0.0565 for the second.

Compared with ACGACCTG, CCCACACA is higher in “PBM E-score” value: -0.28 for the first, -0.252 for the second.

Compared with GGGGATGA, ACTTACCC is higher in “PBM E-score” value: -0.278 for the first, 0.0125 for the second.

First: GACAACGC
Second: AAGAATCG
The “PBM E-score” value of the first is lower: -0.0716 for the first, 0.219 for the second.

Compared with CCTGATGA, AGCGTCAG is lower in “PBM E-score” value: 0.0282 for the first, -0.176 for the second.

Going from ACTTCGTA to ATCAATTG, the “PBM E-score” value rises from 0.0704 to 0.197.

First: GCCACCCA
Second: CTCTTTGA
The “PBM E-score” value of the first is lower: -0.184 for the first, 0.0351 for the second.

First: ACCTCGCG
Second: ATGAAGGA
The “PBM E-score” value of the first is lower: -0.208 for the first, 0.119 for the second.

First: GAGTCATC
Second: AACTCCTT
The “PBM E-score” value of the first is lower: -0.0744 for the first, 0.19 for the second.

First: CTGGATGC
Second: CAATTGAA
The “PBM E-score” value of the first is lower: -0.275 for the first, 0.0842 for the second.

First: GTTATGAA
Second: ACGTGCAG
The “PBM E-score” value of the first is higher: 0.182 for the first, -0.234 for the second.

Going from CCGTTGCA to CGCTGAAG, the “PBM E-score” value falls from 0.0124 to -0.028.

Going from ACCTACCG to AAGCTACT, the “PBM E-score” value rises from -0.0312 to 0.0425.

First: ATTCGGTG
Second: AGAGTCCA
The “PBM E-score” value of the first is higher: 0.14 for the first, -0.0986 for the second.

Going from ACCTTGCG to CTACCGGC, the “PBM E-score” value falls from -0.0514 to -0.164.

Compared with CAAAGAAA, TTCCGGAA is higher in “PBM E-score” value: 0.115 for the first, 0.395 for the second.

First: GACTCTCC
Second: AAATCCGT
The “PBM E-score” value of the first is lower: -0.0114 for the first, 0.149 for the second.

Compared with GACTGACA, GACAGAAC is lower in “PBM E-score” value: 0.116 for the first, 0.11 for the second.

Going from ACCCCATG to ATAACCAT, the “PBM E-score” value rises from -0.0491 to 0.0405.

First: CTGCAAGA
Second: CGTGCTCC
The “PBM E-score” value of the first is lower: -0.136 for the first, 0.166 for the second.

First: GCTCCATA
Second: ACCCCGGG
The “PBM E-score” value of the first is lower: -0.0214 for the first, 0.347 for the second.

First: GGGAGTCA
Second: ATTATCGG
The “PBM E-score” value of the first is lower: -0.126 for the first, 0.141 for the second.

First: CAAATGGA
Second: CAAGCCAG
The “PBM E-score” value of the first is higher: -0.0114 for the first, -0.171 for the second.

Going from AGCCTATC to ACTGTACG, the “PBM E-score” value rises from -0.0713 to 0.0222.

Compared with ATAACGTG, ACACTGGT is lower in “PBM E-score” value: -0.0693 for the first, -0.102 for the second.

First: AATCCACC
Second: CGAGCCAG
The “PBM E-score” value of the first is higher: -0.0337 for the first, -0.131 for the second.

Going from CCGTACAA to ACAGTTTG, the “PBM E-score” value falls from 0.0894 to -0.156.

First: AAGCTAAA
Second: CAGTTGCG
The “PBM E-score” value of the first is higher: 0.111 for the first, 0.0442 for the second.

First: AGCGGGCA
Second: CGGTCACC
The “PBM E-score” value of the first is lower: -0.228 for the first, -0.165 for the second.

Going from ATTTTGAG to AGGAAATG, the “PBM E-score” value falls from 0.146 to 0.0446.

Going from TAAGTAAA to AACAGCTC, the “PBM E-score” value falls from 0.0854 to -0.0889.

Going from GCGCCCCA to AGCAGGTG, the “PBM E-score” value rises from -0.319 to -0.102.

First: ACGATTAT
Second: AACCGCCT
The “PBM E-score” value of the first is higher: 0.171 for the first, -0.00836 for the second.

Compared with CACAAAAA, CACTAGCC is lower in “PBM E-score” value: 0.25 for the first, -0.118 for the second.

First: ATGTGCAA
Second: ATATGAAG
The “PBM E-score” value of the first is lower: 0.001 for the first, 0.084 for the second.

Compared with GCTGGTTA, CATACCAG is lower in “PBM E-score” value: -0.062 for the first, -0.186 for the second.

First: ATGTCGCC
Second: AAAGTTAG
The “PBM E-score” value of the first is lower: -0.221 for the first, 0.102 for the second.

First: ACGAAACC
Second: CAGGTCGA
The “PBM E-score” value of the first is higher: 0.107 for the first, -0.0726 for the second.

Going from AACTCGTC to ACTTCTCG, the “PBM E-score” value rises from -0.0207 to 0.153.

Compared with AAGACTGT, AAGTTGAG is higher in “PBM E-score” value: -0.274 for the first, 0.136 for the second.

Compared with GGATTCGA, AGAAAAAA is higher in “PBM E-score” value: -0.0691 for the first, 0.175 for the second.

First: ATCCTTGG
Second: CCATTTAA
The “PBM E-score” value of the first is lower: 0.00304 for the first, 0.141 for the second.

Going from CACTCAGC to GCACCGAA, the “PBM E-score” value rises from -0.17 to 0.168.

First: AATTCGAG
Second: AGGGGCAA
The “PBM E-score” value of the first is higher: -0.0711 for the first, -0.141 for the second.

First: AGTGTTGA
Second: AAGTGATG
The “PBM E-score” value of the first is higher: 0.0298 for the first, 0.00091 for the second.

Compared with AAAGCGAA, ATCCATTC is lower in “PBM E-score” value: 0.157 for the first, 0.128 for the second.

Going from CAGGGTTC to CATTGGGG, the “PBM E-score” value falls from -0.124 to -0.263.

Going from AGTCTAGG to CGTACTGC, the “PBM E-score” value falls from -0.0461 to -0.0978.

First: GGTATTAC
Second: GGGACCGA
The “PBM E-score” value of the first is higher: 0.217 for the first, 0.0612 for the second.

First: AAACAAGG
Second: AATACCCA
The “PBM E-score” value of the first is lower: -0.0876 for the first, 0.0987 for the second.

Compared with TATTTAAA, GTAAGACA is lower in “PBM E-score” value: 0.279 for the first, -0.0361 for the second.

Compared with AGTTCCAA, AATTGCAC is lower in “PBM E-score” value: 0.206 for the first, -0.113 for the second.

Going from GCAACGGA to CAGTACCG, the “PBM E-score” value falls from 0.306 to 0.0163.

Going from TAAGCAAA to GTTTGAGA, the “PBM E-score” value falls from 0.144 to -0.0795.

Compared with CGTAGAAC, ATAGAAGC is higher in “PBM E-score” value: -0.0804 for the first, 0.158 for the second.

First: ACAATCTC
Second: AACTCACC
The “PBM E-score” value of the first is lower: 0.024 for the first, 0.0245 for the second.

First: CTGTCTAC
Second: GACGTTTA
The “PBM E-score” value of the first is higher: 0.105 for the first, -0.107 for the second.

First: GAAAAATC
Second: AGGATGTA
The “PBM E-score” value of the first is higher: 0.169 for the first, 0.0443 for the second.

First: ACTGGCCG
Second: ACCTGTAT
The “PBM E-score” value of the first is lower: -0.218 for the first, -0.0372 for the second.

Compared with AAAATCGG, GTCCTGGA is lower in “PBM E-score” value: 0.0903 for the first, -0.308 for the second.

Compared with GACGATGA, CCGCGTTC is lower in “PBM E-score” value: 0.00175 for the first, -0.0365 for the second.

Going from AGCGGTAG to CAGGGGGC, the “PBM E-score” value falls from -0.265 to -0.274.

First: GCCCGCGA
Second: AGTTCCCA
The “PBM E-score” value of the first is higher: -0.0595 for the first, -0.122 for the second.

First: AGGGTCCG
Second: ACAGGTGA
The “PBM E-score” value of the first is higher: 0.108 for the first, -0.0348 for the second.

Going from CATATCGG to CTTCTCCA, the “PBM E-score” value falls from 0.0712 to -0.222.

Going from CAAATATA to TGTGTCAA, the “PBM E-score” value falls from 0.199 to 0.104.

First: CAGGACGC
Second: CGCGATGC
The “PBM E-score” value of the first is higher: -0.21 for the first, -0.232 for the second.

Compared with CTATGCAG, AAAATTGT is higher in “PBM E-score” value: -0.0917 for the first, 0.219 for the second.
